# The list shows a part of the results.
# Assays:
# Assay in all cases: glycan array binding signal (z-score within array); higher = stronger binding
# Conditions in all cases: glycan notation: IUPAC condensed, linker removed
# [1] = biological target: Gal(b1-4)GlcNAc(b1-2)Man(a1-3)[Gal(b1-4)GlcNAc(b1-2)Man(a1-6)]Man(b1-4)GlcNAc(b1-4)GlcNAc
# Method in brief: (§1)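 The binding signal is a Z-score computed within each array. Data were drawn from 3228 arrays in the Consortium for Functional Glycomics database, restricted to those with a known protein sequence. Scores were averaged over arrays of the same protein sequence at different concentrations or buffers, and over linkers, and negative values can be taken as non-binding.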
# [2] = biological target: Gal(b1-4)GlcNAc(b1-2)Man(a1-3)[Gal(b1-4)GlcNAc(b1-2)Man(a1-6)]Man(b1-4)GlcNAc(b1-4)[Fuc(a1-6)]GlcNAc
# Method in brief: as §1
# [3] = biological target: Gal(b1-4)GlcNAc(b1-2)Man(a1-3)[Gal(b1-4)GlcNAc(b1-2)Man(a1-6)][Gal(b1-4)GlcNAc(b1-4)]Man(b1-4)GlcNAc(b1-4)[Fuc(a1-6)]GlcNAc
# Method in brief: as §1
# [4] = biological target: Gal(b1-4)GlcNAc(b1-2)Man(a1-3)[Gal(b1-4)GlcNAc(b1-2)Man(a1-6)][GlcNAc(b1-4)]Man(b1-4)GlcNAc(b1-4)[Fuc(a1-6)]GlcNAc
# Method in brief: as §1
# [5] = biological target: Gal(b1-4)GlcNAc(b1-2)Man(a1-3)[GlcNAc(b1-2)Man(a1-6)]Man(b1-4)GlcNAc(b1-4)GlcNAc
# Method in brief: as §1
# [6] = biological target: Gal(b1-4)GlcNAc(b1-2)Man(a1-3)[GlcNAc(b1-4)][Gal(b1-4)GlcNAc(b1-2)Man(a1-6)]Man(b1-4)GlcNAc(b1-4)GlcNAc
# Method in brief: as §1
# [7] = biological target: Gal(b1-4)GlcNAc(b1-2)Man(a1-3)[Man(a1-6)]Man(b1-4)GlcNAc(b1-4)GlcNAc
# Method in brief: as §1
# [8] = biological target: Gal(b1-4)GlcNAc(b1-2)Man(a1-6)Man(b1-4)GlcNAc(b1-4)GlcNAc
# Method in brief: as §1
# [9] = biological target: Gal(b1-4)GlcNAc(b1-2)Man(a1-6)[GlcNAc(b1-2)Man(a1-3)]Man(b1-4)GlcNAc(b1-4)GlcNAc
# Method in brief: as §1
# [10] = biological target: Gal(b1-4)GlcNAc(b1-2)Man(a1-6)[Man(a1-3)]Man(b1-4)GlcNAc(b1-4)GlcNAc
# Method in brief: as §1
# [11] = biological target: Gal(b1-4)GlcNAc(b1-2)[Gal(b1-4)GlcNAc(b1-4)]Man(a1-3)[Gal(b1-4)GlcNAc(b1-2)Man(a1-6)]Man(b1-4)GlcNAc(b1-4)GlcNAc
# Method in brief: as §1
# [12] = biological target: Gal(b1-4)GlcNAc(b1-2)[Gal(b1-4)GlcNAc(b1-4)]Man(a1-3)[Gal(b1-4)GlcNAc(b1-2)[Gal(b1-4)GlcNAc(b1-6)]Man(a1-6)]Man(b1-4)GlcNAc(b1-4)GlcNAc
# Method in brief: as §1
# [13] = biological target: Gal(b1-4)GlcNAc(b1-2)[Gal(b1-4)GlcNAc(b1-4)]Man(a1-3)[GlcNAc(b1-4)][Gal(b1-4)GlcNAc(b1-2)Man(a1-6)]Man(b1-4)GlcNAc(b1-4)GlcNAc
# Method in brief: as §1
# [14] = biological target: Gal(b1-4)GlcNAc(b1-2)[Gal(b1-4)GlcNAc(b1-4)]Man(a1-3)[GlcNAc(b1-4)][Gal(b1-4)GlcNAc(b1-2)[Gal(b1-4)GlcNAc(b1-6)]Man(a1-6)]Man(b1-4)GlcNAc(b1-4)GlcNAc
# Method in brief: as §1
# [15] = biological target: Gal(b1-4)GlcNAc(b1-2)[Gal(b1-4)GlcNAc(b1-6)]Man(a1-6)[Gal(b1-4)GlcNAc(b1-2)Man(a1-3)]Man(b1-4)GlcNAc(b1-4)GlcNAc
# Method in brief: as §1
# [16] = biological target: Gal(b1-4)GlcNAc(b1-2)[Gal(b1-4)GlcNAc(b1-6)]Man(a1-6)[Gal(b1-4)GlcNAc(b1-2)Man(a1-3)]Man(b1-4)GlcNAc(b1-4)[Fuc(a1-6)]GlcNAc
# Method in brief: as §1
# [17] = biological target: Gal(b1-4)GlcNAc(b1-2)[Gal(b1-4)GlcNAc(b1-6)]Man(a1-6)[GlcNAc(b1-4)][Gal(b1-4)GlcNAc(b1-2)Man(a1-3)]Man(b1-4)GlcNAc(b1-4)GlcNAc
# Method in brief: as §1
# [18] = biological target: Gal(b1-4)GlcNAc(b1-2)[Gal(b1-4)GlcNAc(b1-6)]Man(a1-6)[GlcNAc(b1-4)][Gal(b1-4)GlcNAc(b1-2)[Gal(b1-4)GlcNAc(b1-4)]Man(a1-3)]Man(b1-4)GlcNAc(b1-4)[Fuc(a1-6)]GlcNAc
# Method in brief: as §1
# [19] = biological target: Gal(b1-4)GlcNAc(b1-3)Gal(b1-3)GalNAc
# Method in brief: as §1
binder,measurement,setting,value
DrGal9 (Danio rerio) (protein) MAFYQQPPYYNPRIPFSGPIQGGLQDGKSIIISGRVLPGANRFHVNLQCGSHSEANVALHFNPRYEDTDYVVNNSYLNRTWGSEERKYESPFAQGQTFTLQILVAQDKYKISTNGRHFMDYKHRIPFTQVDTVAVEGMVEVNSVAFQNPAGFIPPQAGYAPQYAVPPGCGFPAFPSAPNYTIPHKTVMNGGLHPGKNIVINGVVNPNAKSIIFNLCYRSGIAFHYNPRFDENVVVRNTNQMEKWGAEERFGGLPFHKGQPFQVTISCNPQHYNVFVNGKQEHTYKHRYTKLNDIDILEICGDLQLTSVQA,glycan array binding signal (z-score),[1],0.072
same,glycan array binding signal (z-score),[2],0.166
same,glycan array binding signal (z-score),[3],0.302
same,glycan array binding signal (z-score),[4],0.083
same,glycan array binding signal (z-score),[5],-0.148
same,glycan array binding signal (z-score),[6],-0.072
same,glycan array binding signal (z-score),[7],0.144
same,glycan array binding signal (z-score),[8],-0.094
same,glycan array binding signal (z-score),[9],-0.234
same,glycan array binding signal (z-score),[10],-0.023
same,glycan array binding signal (z-score),[11],0.969
same,glycan array binding signal (z-score),[12],0.365
same,glycan array binding signal (z-score),[13],0.341
same,glycan array binding signal (z-score),[14],0.66
same,glycan array binding signal (z-score),[15],0.289
same,glycan array binding signal (z-score),[16],1.75
same,glycan array binding signal (z-score),[17],0.383
same,glycan array binding signal (z-score),[18],0.393
same,glycan array binding signal (z-score),[19],0.158

# Source: the supplement of paper PMC8728848
